Results taken from publication PMC12607630.
No constants are given. Whether binding was seen depends on the method and setting. Some entries that bind do so weakly or less than the wild type.

By UniProt entry, the sequences of proteins in these tests, tags left out. Residues count along the entry.
FtsZ^316-383 (bacterial two-hybrid fusion) (P0A9A6, residues 316-383): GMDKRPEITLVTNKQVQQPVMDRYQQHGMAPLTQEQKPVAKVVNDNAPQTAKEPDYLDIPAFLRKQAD
SUMO-FtsZ^316-370 (P0A9A6, residues 316-370): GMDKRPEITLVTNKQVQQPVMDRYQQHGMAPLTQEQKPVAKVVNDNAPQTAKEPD
UniProt P75862: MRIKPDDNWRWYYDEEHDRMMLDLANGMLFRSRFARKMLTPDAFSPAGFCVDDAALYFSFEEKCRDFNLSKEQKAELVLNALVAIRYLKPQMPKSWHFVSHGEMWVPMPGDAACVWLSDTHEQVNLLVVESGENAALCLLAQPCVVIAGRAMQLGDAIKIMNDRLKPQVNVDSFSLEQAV

Key:
[1] = biological target: FtsZ^316-370 (bacterial two-hybrid fusion) (Escherichia coli) (UniProt P0A9A6); assay: two-hybrid; bacterial two-hybrid in strain LYA1 (BTH101, ftsA^R286W); LB plates with antibiotics, 40 µg/mL X-gal and IPTG, 30°C, about 18 hours
[2] = biological target: FtsZ^316-383 (bacterial two-hybrid fusion) (Escherichia coli) (UniProt P0A9A6); assay: as above
[3] = biological target: SUMO-FtsZ^316-370 (Escherichia coli) (UniProt P0A9A6); assay: BLI; SUMO fusions of FtsZ or its parts, or SUMO alone (0.5 µM), held on Ni-NTA biosensors; untagged ZapC in solution; Octet-Red96, 30°C, 1× Pol buffer; apparent Kd from the signal at the end of association, one-site fit; both purified

binding [1]	binding [2]	binding [3]	Substance
no binding	binds	–	ZapC (bacterial two-hybrid fusion) (from UniProt P75862 1-180)
–	–	no binding	ZapC (untagged) (from UniProt P75862 1-180)
